Common to all, as to assay: co-IP; HEK-293 cells overexpressing FLAG-tagged MEIOC or deletion mutants, pre-treated 2 h with 10 μM MG-132; IP with anti-FLAG M2 magnetic beads, western blot with anti-FLAG and anti-YTHDC2
In general terms: Immunoblotting shows a protein as a band on a membrane.

The target in assay [1] is T1, FLAG-tagged MEIOC deletion mutant ΔC [Tyr716-Lys922] (mouse) (UniProt A2AG06).
T1 sequence: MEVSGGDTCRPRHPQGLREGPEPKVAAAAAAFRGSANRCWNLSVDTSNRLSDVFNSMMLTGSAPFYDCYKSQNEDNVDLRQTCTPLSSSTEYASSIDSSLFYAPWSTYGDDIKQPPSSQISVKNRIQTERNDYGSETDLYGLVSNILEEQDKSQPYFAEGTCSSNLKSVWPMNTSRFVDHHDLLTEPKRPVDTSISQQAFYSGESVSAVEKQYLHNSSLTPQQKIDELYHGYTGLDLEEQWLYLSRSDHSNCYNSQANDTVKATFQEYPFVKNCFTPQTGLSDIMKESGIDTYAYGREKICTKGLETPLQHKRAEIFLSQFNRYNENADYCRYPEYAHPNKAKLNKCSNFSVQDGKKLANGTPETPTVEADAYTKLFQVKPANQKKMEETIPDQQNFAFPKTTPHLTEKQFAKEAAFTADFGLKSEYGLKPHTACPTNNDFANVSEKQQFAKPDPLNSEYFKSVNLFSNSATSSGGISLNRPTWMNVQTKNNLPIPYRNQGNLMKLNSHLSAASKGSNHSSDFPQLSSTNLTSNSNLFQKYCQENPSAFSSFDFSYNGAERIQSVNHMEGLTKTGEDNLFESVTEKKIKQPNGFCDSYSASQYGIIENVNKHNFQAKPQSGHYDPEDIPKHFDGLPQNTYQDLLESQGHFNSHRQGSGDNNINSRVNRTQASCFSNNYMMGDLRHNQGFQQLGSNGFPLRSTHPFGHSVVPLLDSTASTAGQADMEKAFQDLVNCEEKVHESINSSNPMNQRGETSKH

Assay [2] has as its target T2, FLAG-tagged MEIOC deletion mutant ΔH2 [Ile806-Ser842] (mouse) (UniProt A2AG06).
T2 sequence: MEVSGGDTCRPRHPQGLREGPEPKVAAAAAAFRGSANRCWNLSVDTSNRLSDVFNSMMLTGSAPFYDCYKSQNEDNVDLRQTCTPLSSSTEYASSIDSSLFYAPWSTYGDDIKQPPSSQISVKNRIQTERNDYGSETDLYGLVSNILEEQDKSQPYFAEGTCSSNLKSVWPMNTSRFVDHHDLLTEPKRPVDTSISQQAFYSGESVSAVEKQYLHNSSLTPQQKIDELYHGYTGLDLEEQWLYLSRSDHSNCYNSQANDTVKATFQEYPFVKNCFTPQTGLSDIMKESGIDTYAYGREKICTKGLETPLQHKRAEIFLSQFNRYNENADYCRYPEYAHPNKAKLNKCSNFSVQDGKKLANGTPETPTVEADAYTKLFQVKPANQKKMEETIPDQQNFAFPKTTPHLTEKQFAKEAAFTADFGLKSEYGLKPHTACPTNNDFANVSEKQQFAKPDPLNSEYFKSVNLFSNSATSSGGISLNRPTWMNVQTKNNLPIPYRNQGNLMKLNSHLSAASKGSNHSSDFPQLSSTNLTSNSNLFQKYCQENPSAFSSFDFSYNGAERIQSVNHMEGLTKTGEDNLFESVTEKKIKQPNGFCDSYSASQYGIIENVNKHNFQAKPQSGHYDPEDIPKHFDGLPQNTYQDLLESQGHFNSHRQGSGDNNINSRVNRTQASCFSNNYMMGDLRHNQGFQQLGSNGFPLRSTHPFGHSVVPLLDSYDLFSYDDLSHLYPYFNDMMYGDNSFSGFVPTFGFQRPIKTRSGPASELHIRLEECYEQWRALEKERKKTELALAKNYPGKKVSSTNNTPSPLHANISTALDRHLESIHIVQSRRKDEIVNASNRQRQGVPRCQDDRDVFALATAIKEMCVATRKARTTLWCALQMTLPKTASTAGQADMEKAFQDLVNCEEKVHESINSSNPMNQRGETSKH

Assay [3] concerns the target T3, FLAG-tagged MEIOC deletion mutant ΔN1 [Glu2-Pro366] (mouse) (UniProt A2AG06).
T3 sequence: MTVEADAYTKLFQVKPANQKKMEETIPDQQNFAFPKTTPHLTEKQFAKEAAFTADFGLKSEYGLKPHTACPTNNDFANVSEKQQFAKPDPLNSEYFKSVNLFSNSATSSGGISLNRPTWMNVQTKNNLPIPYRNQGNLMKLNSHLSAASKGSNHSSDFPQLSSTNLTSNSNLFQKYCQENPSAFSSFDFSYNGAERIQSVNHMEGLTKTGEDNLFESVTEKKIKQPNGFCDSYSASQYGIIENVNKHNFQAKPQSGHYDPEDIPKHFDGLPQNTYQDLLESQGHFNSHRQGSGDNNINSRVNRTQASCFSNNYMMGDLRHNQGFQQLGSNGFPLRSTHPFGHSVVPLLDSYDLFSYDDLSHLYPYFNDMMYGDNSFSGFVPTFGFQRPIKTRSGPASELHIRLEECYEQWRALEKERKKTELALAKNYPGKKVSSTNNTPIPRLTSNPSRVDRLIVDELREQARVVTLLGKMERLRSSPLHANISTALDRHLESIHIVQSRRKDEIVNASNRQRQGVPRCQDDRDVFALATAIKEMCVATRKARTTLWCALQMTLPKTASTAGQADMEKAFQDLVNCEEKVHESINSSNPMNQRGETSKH

Assay [4] has as its target T4, FLAG-tagged MEIOC deletion mutant ΔN2 [Pro23-Ser715] (mouse) (UniProt A2AG06).
T4 sequence: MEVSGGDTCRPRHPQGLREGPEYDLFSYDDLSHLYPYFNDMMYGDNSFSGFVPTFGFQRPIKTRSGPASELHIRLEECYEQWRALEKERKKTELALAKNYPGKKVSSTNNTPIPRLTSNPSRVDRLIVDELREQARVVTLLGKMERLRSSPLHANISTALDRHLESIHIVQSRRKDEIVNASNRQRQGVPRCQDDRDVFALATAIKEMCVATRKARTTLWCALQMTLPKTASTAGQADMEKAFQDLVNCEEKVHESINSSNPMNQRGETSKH

The values that follow come from article PMC4729902.

No constants are given. Whether binding was seen depends on the method and setting. In cells and extracts the contact can be indirect. Some binding calls cover weakened binding; strength is not graded here. Sequences can lack the tags named with a protein.

B1: YTHDC2, in HEK-293 cells (protein, UniProt Q9H6S0 1-1430)
chain: MSRPSSVSPRQPAPGGGGGGGPSPCGPGGGGRAKGLKDIRIDEEVKIAVNIALERFRYGDQREMEFPSSLTSTERAFIHRLSQSLGLVSKSKGKGANRYLTVKKKDGSETAHAMMTCNLTHNTKHAVRSLIQRFPVTNKERTELLPKTERGNVFAVEAENREMSKTSGRLNNGIPQIPVKRGESEFDSFRQSLPVFEKQEEIVKIIKENKVVLIVGETGSGKTTQIPQFLLDDCFKNGIPCRIFCTQPRRLAAIAVAERVAAERRERIGQTIGYQIRLESRVSPKTLLTFCTNGVLLRTLMAGDSTLSTVTHVIVDEVHERDRFSDFLLTKLRDLLQKHPTLKLILSSAALDVNLFIRYFGSCPVIYIQGRPFEVKEMFLEDILRTTGYTNKEMLKYKKEKQQEEKQQTTLTEWYSAQENSFKPESQRQRTVLNVTDEYDLLDDGGDAVFSQLTEKDVNCLEPWLIKEMDACLSDIWLHKDIDAFAQVFHLILTENVSVDYRHSETSATALMVAAGRGFASQVEQLISMGANVHSKASNGWMALDWAKHFGQTEIVDLLESYSATLEFGNLDESSLVQTNGSDLSAEDRELLKAYHHSFDDEKVDLDLIMHLLYNICHSCDAGAVLIFLPGYDEIVGLRDRILFDDKRFADSTHRYQVFMLHSNMQTSDQKKVLKNPPAGVRKIILSTNIAETSITVNDVVFVIDSGKVKEKSFDALNFVTMLKMVWISKASAIQRKGRAGRCRPGICFRLFSRLRFQNMLEFQTPELLRMPLQELCLHTKLLAPVNCPIADFLMKAPEPPPALIVRNAVQMLKTIDAMDTWEDLTELGYHLADLPVEPHLGKMVLCAVVLKCLDPILTIACTLAYRDPFVLPTQASQKRAAMLCRKRFTAGAFSDHMALLRAFQAWQKARSDGWERAFCEKNFLSQATMEIIIGMRTQLLGQLRASGFVRARGGGDIRDVNTNSENWAVVKAALVAGMYPNLVHVDRENLVLTGPKEKKVRFHPASVLSQPQYKKIPPANGQAAAIKALPTDWLIYDEMTRAHRIANIRCCSAVTPVTILVFCGPARLASNALQEPSSFRVDGIPNDSSDSEMEDKTTANLAALKLDEWLHFTLEPEAASLLLQLRQKWHSLFLRRMRAPSKPWSQVDEATIRAIIAVLSTEEQSAGLQQPSGIGQRPRPMSSEELPLASSWRSNNSRKSSADTEFSDECTTAERVLMKSPSPALHPPQKYKDRGILHPKRGTEDRSDQSSLKSTDSSSYPSPCASPSPPSSGKGSKSPSPRPNMPVRYFIMKSSNLRNLEISQQKGIWSTTPSNERKLNRAFWESSIVYLVFSVQGSGHFQGFSRMSSEIGREKSQDWGSAGLGGVFKVEWIRKESLPFQFAHHLLNPWNDNKKVQISRDGQELEPLVGEQLLQLWERLPLGEKNTTD
B1: the binding result is recorded as “no binding” in assay [1], “no binding” in assay [2], “binds” in assay [3] and “binds” in assay [4].
